Test results reported in PubChem BioAssay AID360 (National Center for Advancing Translational Sciences (NCATS), 2006).
The whole screen tested about 48,000 compounds, of which about 550 (1.1%) were called active. Inconclusive results (about 4%) are left out. No stated cut-off is given here; in the data, active means potency below about 15 µM; inconclusive means mostly about 16 µM to 33 µM; inactive means weaker than that. The list shows a part of the results.

The compounds below were run against Lysosomal acid glucosylceramidase (Homo sapiens) (UniProt P04062) (assay: Glucocerebrosidase). Details: purified enzyme, resorufin glucoside fluorescence (screen aimed at inhibitors), 20 min.
In short: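 Wild-type enzyme at 0.2 nM final in 50mM citric acid/KH2PO4, 10mM sodium taurocholate, 0.01% tween-20, pH 5.9, with resorufin beta-D-glucopyranoside at 30 uM final. Compounds titrated, 20 min at RT, red fluorescence read; AC50 from titration.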
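Further: the screen sought inhibitors.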
Potency means the concentration at half of the fitted maximal effect.

UniProt P04062, sequence (P04062 whole entry, looked up): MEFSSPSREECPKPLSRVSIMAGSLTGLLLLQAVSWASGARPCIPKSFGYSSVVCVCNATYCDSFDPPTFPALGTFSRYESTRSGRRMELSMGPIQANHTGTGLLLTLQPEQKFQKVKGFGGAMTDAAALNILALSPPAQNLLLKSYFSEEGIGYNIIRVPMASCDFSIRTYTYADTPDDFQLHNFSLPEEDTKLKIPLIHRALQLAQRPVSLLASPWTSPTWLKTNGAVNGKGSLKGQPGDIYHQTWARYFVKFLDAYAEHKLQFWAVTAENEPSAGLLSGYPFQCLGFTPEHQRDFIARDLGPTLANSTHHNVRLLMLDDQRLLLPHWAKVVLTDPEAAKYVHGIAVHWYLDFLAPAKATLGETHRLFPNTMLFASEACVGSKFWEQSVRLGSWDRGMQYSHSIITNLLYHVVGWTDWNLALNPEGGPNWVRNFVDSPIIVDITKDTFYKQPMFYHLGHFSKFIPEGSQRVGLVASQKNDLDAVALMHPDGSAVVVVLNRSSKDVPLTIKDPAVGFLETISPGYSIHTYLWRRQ

Potency, inactive:
O=C(CCN1CCN(CC(=O)Nc2ccccc2F)CC1)Nc1ccccc1F > 76.9 µM
C=CCn1c(COc2ccccc2C)nnc1SCC(=O)O > 76.9 µM
COc1cccc2cc(C(=O)N3CCN(C45CC6CC(CC(C6)C4)C5)CC3)c(=O)oc12 > 76.9 µM
COc1ccc(NC(=O)C(CC(C)C)NC(=O)c2ccccc2C)cn1 (stereo not given) > 76.9 µM
CC1=C(C)CS(=O)N(c2ccc(S(N)(=O)=O)cc2)C1 (stereo not given) > 76.9 µM
Cc1ccc(C2CCN(C(=O)Nc3ccccc3)C2)cc1 (stereo not given) > 76.9 µM
CC(C)N(Cc1nnc(-c2ccccc2Cl)o1)C(=O)c1cccc(C#N)c1 > 76.9 µM
c1cc(C2OCCN2CC2COC3(CCCC3)O2)ccn1 (stereo not given) > 76.9 µM
O=C(OCc1nc2ccccc2s1)c1cccc(S(=O)(=O)N2CCOCC2)c1 > 76.9 µM
COc1ccc(CCNC(=O)c2nnn(-c3ccc4c(c3)OCCO4)c2N)cc1OC > 76.9 µM
COc1ccc(-c2nc(C#N)c(NCc3ccccc3Cl)o2)cc1 > 76.9 µM
C1=C(c2ccc(-c3ccccc3)cc2)Nc2ncnn2C1c1ccco1 (stereo not given) > 76.9 µM
O=C(NCc1ccco1)c1cc2sccc2n1Cc1ccc(F)cc1
CCOc1ccc(NC(=O)C/C(N)=N/O)cc1 > 76.9 µM
COCc1nnc(NS(=O)(=O)c2ccc(NC(C)=O)cc2)s1 > 76.9 µM
COc1ccc(C2SCCN2S(=O)(=O)c2ccc(F)cc2)cc1OC (stereo not given) > 76.9 µM
CC(=O)Nc1ccc(S(=O)(=O)NCCC(=O)OCCN2C(=O)c3ccccc3C2=O)cc1 > 76.9 µM
CN=C(NC#N)SCC(=O)c1ccc(Cl)cc1Cl > 76.9 µM
CN(C)S(=O)(=O)Nc1ccc(C(=O)O)cc1 > 76.9 µM
OC(COc1cccc(OCC(O)CN2CCOCC2)c1)CN1CCOCC1 (stereo not given) > 76.9 µM
Cc1ccc(S(=O)(=O)NCc2ccc(C(=O)N(C)CCC#N)cc2)cc1 > 76.9 µM
CN(C(=O)c1cccnc1)c1nc(-c2ccccc2)cs1 > 76.9 µM
CC(C)n1c(N2CCN(CC(=O)NCc3cccs3)CC2)nc2ccccc21 > 76.9 µM
CCCC(=O)Nc1ccc(C(=O)NCC(=O)OCC)cc1 > 76.9 µM
COc1ccc(N2CCN(CCNS(=O)(=O)c3cccc4nsnc34)CC2)cc1 > 76.9 µM
